Assay results reported in PubChem BioAssay AID1768 (National Center for Advancing Translational Sciences (NCATS), 2009).
Screen size: about 270,000 compounds; about 620 (0.23%) were called active. Inconclusive results, whose numbers are uncertain, are shown with a selection of clear calls. Calls come from the whole dose curve; as a rule, active = well fitted inhibition curve with a large enough effect in the polarisation, with a control signal flat (not every such curve was filed as active); inconclusive = small, poorly fitted or top-dose-only effect, or effect the other way, or a change in a side signal; inactive = no such curve, though single readings can be large or run the other way; the % refers to the polarisation. Where the call is inconclusive, the potency comes from a doubtful curve fit. “Side channel” marks fits to a control or component signal instead of the main read-out.

target: Menin (Homo sapiens) (UniProt O00255); test: qHTS Assay for Inhibitors Targeting the Menin-MLL Interaction in MLL Related Leukemias: Competition With Texas Red Labeled MLL-derived Mutant Peptide; settings: fluorescence polarization; series mostly up to 61.6 µM
UniProt O00255, sequence (O00255 whole entry, looked up): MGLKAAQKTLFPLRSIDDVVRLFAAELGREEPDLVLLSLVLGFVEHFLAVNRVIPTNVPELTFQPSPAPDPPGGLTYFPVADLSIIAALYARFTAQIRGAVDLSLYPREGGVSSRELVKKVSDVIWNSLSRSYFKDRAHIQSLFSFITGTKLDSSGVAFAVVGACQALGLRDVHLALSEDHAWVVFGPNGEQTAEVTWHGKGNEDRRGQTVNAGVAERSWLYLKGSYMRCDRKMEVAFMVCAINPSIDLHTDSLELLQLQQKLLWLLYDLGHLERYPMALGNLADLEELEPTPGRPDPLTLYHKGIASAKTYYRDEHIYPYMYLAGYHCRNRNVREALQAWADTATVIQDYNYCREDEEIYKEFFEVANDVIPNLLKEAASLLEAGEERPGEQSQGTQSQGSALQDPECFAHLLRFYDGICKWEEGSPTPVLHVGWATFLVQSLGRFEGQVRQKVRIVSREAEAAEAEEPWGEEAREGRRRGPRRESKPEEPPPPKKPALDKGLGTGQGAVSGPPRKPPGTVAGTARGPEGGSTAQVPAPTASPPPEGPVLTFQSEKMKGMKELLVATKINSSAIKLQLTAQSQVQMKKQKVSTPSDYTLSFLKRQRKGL
Potency is the fitted concentration of half-maximal effect; tags give direction and shape of the fitted curve or compound fluorescence and quenching.

Potency, inconclusive:
CCOc1ccc(Nc2nc(N)c([N+](=O)[O-])c(N3CCOCC3)n2)cc1 17.8 µM [quencher, side channel, partial curve]
COc1ccc(CN(C(=O)c2cccs2)c2ccccc2)cc1 11.2 µM [fluorescent, side channel, partial curve]
Cc1ccc(/C=N/NC(=O)c2cccc(S(=O)(=O)Nc3ccccc3Cl)c2)s1 31.6 µM [quencher, side channel, single point]
CC/C(=C\C(=O)c1cccnc1)Nc1ccc(C)c(C)c1 15.8 µM [fluorescent, side channel, partial curve]
NS(=O)(=O)c1ccc(CNC(=O)c2cc(-c3ccccn3)nc3ccc(Cl)cc23)cc1 11.2 µM [quencher, partial curve]
O=c1c2c(n3nnnc3n1-c1ccccc1)-c1ccccc1CC21CCCC1 31.6 µM [inhibitor, single point]
CCOC(=O)c1c(SC)n(-c2ccccc2)c(=S)n(-c2ccccc2)c1=O 31.6 µM [fluorescent, side channel, single point]
CSCCC1NC(=O)N(CC(=O)N2N=C(c3ccc(Cl)cc3)CC2c2ccco2)C1=O (configuration not stated) 28.2 µM [fluorescent, side channel, single point]
COc1ccc(/C(O)=C2/C(=O)C(=O)N(Cc3ccco3)C2c2cccs2)cc1 (configuration not stated) 20 µM [quencher, side channel, partial curve]
COc1ccc(S(=O)(=O)Nc2c(C(=O)O)[nH]c3ccccc23)c(OC)c1 39.8 µM [quencher, side channel, single point]
CC(=O)Nc1ccc(S(=O)(=O)NCC2CCC(C(=O)NC(C)c3ccccc3)CC2)cc1 (configuration not stated) 31.6 µM [fluorescent, side channel, single point]
CC1Cc2nc(SCC(=O)NC3CCCCC3)n(C)c(=O)c2S1 (configuration not stated) 39.8 µM [inhibitor, single point]
COCCN1C(=O)Cc2c1nc(N)c1c(N)nc(N3CCN(c4ccc(F)cc4)CC3)c(C#N)c21 11.2 µM [quencher, side channel, partial curve]
Cc1ccc(C(=O)O)cc1-c1ccc(/C=C2\SC(=O)N(CC(=O)Nc3ccccc3)C2=O)o1 10 µM [quencher, side channel, partial curve]
CC1(C)Oc2ccc3ccc(=O)oc3c2/C(=C/NC2CCCCC2)C1=O 15.8 µM [fluorescent, side channel, single point]
COc1ncc2nc(-c3cccs3)c(=O)n(CCC#N)c2n1 39.8 µM [inhibitor, single point]
CCSc1nnc(CNC(=O)C23CC4CC(CC(C4)C2)C3)n1C1CCCCC1 3.16 µM [fluorescent, side channel, partial curve]
CCS(=O)(=O)c1ccc(O)c(NC(=O)/C=C/c2ccccc2)c1 22.4 µM [quencher, side channel, partial curve]
C=C(C)COc1ccc(-c2[nH]ncc2Oc2ccccc2OC)c(O)c1 17.8 µM [quencher, side channel, partial curve]
O=C(Nc1ccc(S(=O)(=O)NCCc2ccccc2)cc1)c1ccco1 25.1 µM [quencher, side channel, single point]
O=C(CSc1ccc(-c2ccco2)nn1)NCc1ccc(Cl)cc1 31.6 µM [inhibitor, single point]
Cc1cc[n+](CC2OCc3ccccc3CO2)cc1 25.1 µM [inhibitor, single point]
CC(C)(C)c1ccc(C(=O)c2c[nH]c(C(=O)NCc3cccs3)c2)cc1 22.4 µM [fluorescent, side channel, single point]
COC(=O)CN1C(=O)S/C(=C/c2ccc(N3CCCCC3)o2)C1=O 6.31 µM [fluorescent, single point]
COc1cc(C(=O)N/N=C/c2cccc(Oc3ccccc3)c2)ccc1O 39.8 µM [quencher, side channel, single point]
COc1ccc(CNc2ncncc2-c2ccccc2C)c(OC)c1 17.8 µM [inhibitor, partial curve]
CCOC(=O)c1c(NC(=O)Nc2ccccc2)sc(C)c1C 7.94 µM [quencher, side channel, partial curve]
O=C(Nc1cccc(C(=O)O)c1)/C(=C\c1ccco1)NC(=O)c1ccc(Br)o1 39.8 µM [inhibitor, single point]
N#CC1=C(N)OC2=C(CCC/C2=C/c2ccoc2)C1c1ccoc1 (configuration not stated) 20 µM [fluorescent, side channel, partial curve]
O=[N+]([O-])c1ccc(-c2nc(NCc3cccnc3)c3ccccc3n2)cc1 22.4 µM [quencher, side channel, partial curve, poor fit]
CCCn1nc(C(=O)NCc2ccccn2)c2ccccc2c1=O 12.6 µM [inhibitor, partial curve]
COc1ccc(C(=O)Nc2oc(-c3ccccc3)c(-c3ccccc3)c2C#N)cc1OC 14.1 µM [inhibitor, partial curve, poor fit]
O=C(COC(=O)Cc1cn2ccsc2n1)Nc1nc2ccccc2s1 35.5 µM [quencher, side channel, single point]
CC(=O)c1cccc(OCCCOc2cccc3cccnc23)c1 14.1 µM [fluorescent, side channel, partial curve]
CCCCCC(=O)N/N=C(\C)c1ccc(NC(=O)c2ccco2)cc1 25.1 µM [fluorescent, side channel, single point]
C=CCN1C(=O)/C(=C\C=C2\N(C)c3ccccc3C2(C)C)SC1=S 10 µM [fluorescent, side channel, partial curve]
COc1ccc(C2N(c3ccccc3)CCN2c2ccccc2)cc1O 17.8 µM [quencher, side channel, partial curve]
CCc1cc2cc3c(cc2nc1SCC(=O)Nc1c[nH]c(=O)[nH]c1=O)OCO3 31.6 µM [fluorescent, side channel, partial curve]
N#Cc1c(C#N)c(O)c2ccccc2c1O 22.4 µM [quencher, side channel, single point]
COCCNC(=O)CSc1nc(-c2ccccc2)c(-c2ccccc2)o1 3.55 µM [fluorescent, side channel, single point]
CNc1nc2[nH]c(=O)c3c(c2s1)OC(N)=C(C#N)C3c1cccc(F)c1 (configuration not stated) 15.8 µM [quencher, side channel, partial curve]
O=C(NCc1cccs1)C(=O)c1c[nH]c2ccccc12 28.2 µM [inhibitor, single point]
O=C(COc1ccc(Cl)cc1)NC1=NN(c2ccccc2)C(=O)C1 25.1 µM [quencher, side channel, partial curve]
CSc1cccc(NC(=O)CN2C(=O)c3ccccc3S2(=O)=O)c1 15.8 µM [quencher, side channel, partial curve]
COc1ccc(C)cc1NC(=O)N1CCCc2ccccc21 2.82 µM [fluorescent, side channel, full curve, poor fit]
O=C(NCCNc1ccc([N+](=O)[O-])cc1C(F)(F)F)c1ccc(F)cc1 15.8 µM [quencher, side channel, single point]
COc1cccc(C(=O)/C=C/Nc2ccc(S(=O)(=O)Nc3onc(C)c3C)cc2)c1 12.6 µM [quencher, side channel, partial curve]
CCCCCCc1ccc(OCC(=O)OC)cc1OCC(=O)OC 22.4 µM [fluorescent, side channel, partial curve]
O=C(OC(C(=O)Nc1ccc([N+](=O)[O-])cc1Br)c1ccccc1)c1ccccc1 (configuration not stated) 14.1 µM [quencher, side channel, partial curve, poor fit]
COc1ccc(-c2nn(-c3ccccc3)cc2/C=C(\CC(=O)O)c2nc3ccccc3s2)cc1OC 15.8 µM [quencher, side channel, partial curve]

Potency, inactive:
CCOP(=O)(OCC)/C(=N/OC(=O)c1ccccc1C)C(N)=O
CCOC(=O)c1ccc2c(c1)n(CC)c(/C=C/N(C)c1ccccc1)[n+]2CC
Cc1coc2c(C)c3oc(=O)c(CCC(=O)NCCCN4CCOCC4)c(C)c3cc12
O=C(c1ccc(CS(=O)(=O)c2c(Cl)cccc2Cl)o1)N1CCCC1
CCc1nnc(NC(=O)Nc2ccc(Cl)cc2)s1
Cc1cccc(-c2cc3nc(C)cc(C)n3n2)c1
N#CC1=C(N)C(C#N)(C#N)[C@H](c2ccoc2)[C@H]2CN(Cc3ccccc3)CC=C12
